# Paper PMC4336329 (PLoS ONE, 2015)
# Among all 310,000 compounds or so, about 14,000 (4.5%) showed an effect of 50% or more. The effect is printed as a negative number. Some of the results follow.
# Target: human ether-à-go-go-related gene (hERG) potassium channel (human, UniProt Q12809)
# Test: primary screen, population patch clamp on CHO cells stably expressing hERG
# 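Note: peak tail current of the secondary pulse compared with the same well before compound.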
# human ether-à-go-go-related gene (hERG) potassium channel, sequence (Q12809 whole entry, looked up): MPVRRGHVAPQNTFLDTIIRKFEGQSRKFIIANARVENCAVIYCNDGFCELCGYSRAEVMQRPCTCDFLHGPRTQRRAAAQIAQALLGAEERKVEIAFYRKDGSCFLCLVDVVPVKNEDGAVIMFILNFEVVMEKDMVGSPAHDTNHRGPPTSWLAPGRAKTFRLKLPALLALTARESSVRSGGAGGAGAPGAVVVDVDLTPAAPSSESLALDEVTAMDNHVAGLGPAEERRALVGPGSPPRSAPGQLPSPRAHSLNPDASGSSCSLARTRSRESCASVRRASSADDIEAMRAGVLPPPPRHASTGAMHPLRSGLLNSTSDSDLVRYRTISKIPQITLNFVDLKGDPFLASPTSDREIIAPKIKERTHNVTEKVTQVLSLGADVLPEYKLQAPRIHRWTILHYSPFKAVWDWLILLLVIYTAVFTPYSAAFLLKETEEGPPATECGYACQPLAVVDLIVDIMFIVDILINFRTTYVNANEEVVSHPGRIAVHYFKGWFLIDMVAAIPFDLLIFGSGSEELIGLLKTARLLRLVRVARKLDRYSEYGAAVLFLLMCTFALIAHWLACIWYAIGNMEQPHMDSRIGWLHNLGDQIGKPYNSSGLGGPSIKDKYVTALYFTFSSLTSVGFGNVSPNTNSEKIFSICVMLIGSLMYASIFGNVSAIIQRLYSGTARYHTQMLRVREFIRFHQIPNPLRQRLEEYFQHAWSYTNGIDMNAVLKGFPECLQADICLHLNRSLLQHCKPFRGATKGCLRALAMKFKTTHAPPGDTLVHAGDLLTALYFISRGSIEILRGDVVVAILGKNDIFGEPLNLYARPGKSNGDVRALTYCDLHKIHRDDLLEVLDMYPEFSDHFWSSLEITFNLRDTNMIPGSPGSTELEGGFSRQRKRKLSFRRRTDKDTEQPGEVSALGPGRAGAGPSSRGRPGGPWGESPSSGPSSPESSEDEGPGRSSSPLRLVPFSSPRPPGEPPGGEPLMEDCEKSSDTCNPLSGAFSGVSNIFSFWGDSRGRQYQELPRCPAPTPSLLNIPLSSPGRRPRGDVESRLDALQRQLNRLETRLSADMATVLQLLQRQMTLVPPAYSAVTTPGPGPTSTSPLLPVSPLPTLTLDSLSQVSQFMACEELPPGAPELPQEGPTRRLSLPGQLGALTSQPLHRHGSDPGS
row,Compound,"hERG current change (%, negative = inhibition) at 10uM [%]"
1,COC(=O)c1ccccc1Nc1cc(C)nc2nc(C)nn12,-20.4
2,CCN(CC)CCC(c1ccc(OC)cc1)c1c(O)cc(OC)cc1OC (stereo not drawn),-66.4
3,NS(=O)(=O)c1ccc(CNC(=O)c2cccc(Oc3ccccc3)c2)cc1,19.7
4,CCn1c(=O)c(CCC(=O)NCCN2CCOCC2)c(C)c2c(C)nn(-c3ccccc3)c21,-15.1
5,Cc1ccc(C(=O)Nc2ccc3cn[nH]c3c2)cc1S(=O)(=O)N1CCCCC1,-3.13
6,CCOC(=O)c1nnn(-c2nonc2-n2cccc2)c1CN1CCCCC1,-13.4
7,O=C(NCc1ccc2c(c1)OCO2)c1ccc(-c2ccc(Cl)cc2)o1,0.168
8,COc1cc(S(=O)(=O)N2CCOCC2)ccc1NC(=O)CSc1nnc(N)s1,5.21
9,O=C(COC(=O)c1ccc(F)c(S(=O)(=O)N2CCOCC2)c1)NC1CC1,-17.4
10,O=c1c2ccccc2cnn1Cc1ccc(Br)cc1F,12
11,Cc1nc2cc(NC(=O)C3COc4ccccc4O3)ccc2s1 (stereo not drawn),3.86
12,O=C(COC(=O)C(Cc1ccccc1)NC(=O)c1ccc(Cl)cc1)c1ccc(Cl)cc1 (stereo not drawn),-27.3
13,Cc1cc(C(=O)CSc2nnc3ccccn23)c(C)n1-c1ccccc1,-25.6
14,Cc1cc(C(=O)N(C)CC(=O)Nc2ccc(Cl)c(C(F)(F)F)c2)no1,19.1
15,Cn1c(SCc2nc(-c3ccc(Br)cc3)no2)nnc1-c1ccco1,-49.6
16,Cc1ccc(NC(=S)NNC(=O)C2CC2c2ccc(C)cc2)cc1 (stereo not drawn),-7.77
17,COc1ccc(-n2c(SCC(=O)Nc3sc4c(c3C#N)CCCC4)nnc2-c2ccc(O)cc2)cc1,-10.7
18,C=CCN(c1ccccc1)S(=O)(=O)c1cccc(C(=O)NNC(=O)c2ccncc2)c1,-7.43
19,Cc1ccc2c(c1)-c1c(cnn1CC(=O)N1CCCN(Cc3ccccc3F)C1)CO2,-21.5
20,CN(C)c1ccc2c(c1)N=C(c1ccco1)OP2(=S)N1CCOCC1 (stereo not drawn),8.31
21,COc1cccc(OC)c1OC(=O)/C=C/c1ccc(C)o1,6.2
22,Cn1cccc1C(=O)NCCc1ccc(Cl)cc1,-1.6

row,Compound,"hERG current change (%, negative = inhibition) at 10uM [%]"
1,CNCCC1Sc2ccccc2Oc2ccccc21.O=C(O)C(=O)O (stereo not drawn),-37.9
2,CN(C)C(CNC(=O)c1ccc2ccccc2n1)c1ccccc1 (stereo not drawn),11.1
3,N#C/C(C(=O)NCc1ccco1)=C1/SC(Cc2ccc(Cl)cc2)C(=O)N1c1ccccc1 (stereo not drawn),0.854
4,CCOc1cccc2sc(=NC(=O)c3ccco3)n(CC(=O)OC)c12,14.7
5,c1nc(NCCN2CCOCC2)c2sc3nc(N4CCOCC4)c4c(c3c2n1)CCC4,-28
6,O=S(=O)(N/N=C/c1c(F)cccc1Cl)c1ccccc1,4.31
7,COc1cccc(C(=O)O/N=C(\N)c2ccncc2)c1OC,7.84
8,O=C(/C=C/c1ccco1)Nc1cccc(-c2nc3ccccc3[nH]2)c1,-29.1
9,COc1ccc(NC(=O)CSc2nc3c([nH]c4ccccc43)c(=O)n2C)cc1,0.41
10,O=C(NNc1cccc(Cl)c1)c1cccnc1Oc1ccccc1,-8.21
11,COc1cccc(CNC(=O)c2ccccc2SCC(=O)N2CCCC2)c1,-22.7
12,Cc1c(CNC(=O)C2CCC(=O)N(CCc3ccccc3)C2)cnn1C (stereo not drawn),12.2
13,CCOC(=O)N1CCC(NC(=O)C2CCCN(Cc3nc(-c4cccc(C)c4)oc3C)C2)CC1 (stereo not drawn),-63.6
14,CCOC(=O)c1cc(-c2ccc(OC(F)F)cc2)nc2c1c(=O)[nH]c(=O)n2C,-19.1
15,CCOc1ccc(-c2c(C(=O)N/N=C/c3ccncc3)nnn2-c2nonc2N)cc1,9.16
16,CCOC(=O)C(c1ccccc1)C(Nc1cc(C(F)(F)F)cc(C(F)(F)F)c1)c1ccccn1 (stereo not drawn),10.8
17,CN1CCN(S(=O)(=O)c2ccc(N(C)Cc3ccc(OC(F)F)cc3)c([N+](=O)[O-])c2)CC1,-60.8
18,CN(CC(=O)Nc1cccc(F)c1)C(=O)c1ccncc1,4.28
19,O=C(OCc1ccc(Br)cc1)c1cccc(-c2nnc(-c3ccccc3)o2)c1,19.9
20,COc1ccccc1NC(=O)Nc1ccccc1C(=O)NCCCN1CCOCC1,11
21,NC(=O)C1CCCNC1 (stereo not drawn),9.24
22,COc1ccc(NC(=O)CN(C)C(=O)c2n[nH]c3ccccc23)cc1,14.6

row,Compound,"hERG current change (%, negative = inhibition) at 10uM [%]"
1,COc1ccc(CCNC(=O)c2cc(-c3ccncc3)nc3ccc(S(=O)(=O)N4CCOCC4)cc23)cc1OC,-11.4
2,C/C(CC(=O)NC1CCCCC1)=N\NC(=O)c1ccccn1,19.9
3,CCc1nnc(NC(=O)CS(=O)(=O)Cc2ccccc2)s1,3.84
4,COc1cc(/C=C2/C(=O)NN(c3ccc(Cl)cc3)C2=O)cc(OC)c1O,3.98
5,O=C(/C=C/c1ccccc1Cl)c1cccnc1,-3.64
6,Cc1cccc(NC(=O)C(C)SCc2ccccc2)c1 (stereo not drawn),-2.92
7,COc1ccc(S(=O)(=O)N2CCN(C(=O)CCc3c[nH]c4ccccc34)CC2)cc1,-22.6
8,CC(C)C(NS(=O)(=O)c1ccc2c(c1)C(C)(C)C(=O)N2C)C(=O)NCc1ccc(F)cc1 (stereo not drawn),-7.51
9,CCCCC(=O)Nc1cccc(NC(=S)NC(=O)COc2ccccc2Cl)c1,12.1
10,CCOC(=O)c1c(-c2ccc(-c3ccccc3)cc2)csc1NC(=O)CCC(=O)O,6.53
11,COc1ccccc1-c1cc(C(=O)NCCCN2CCOCC2)no1,-28
12,Cc1ccc(NC(=O)N2CCC(=O)N2)cc1,25.1
13,Brc1ccccc1OCCCn1cnc2ccccc21,-17.5
14,O=C(Cc1ccc(Cl)cc1Cl)OCC(=O)N1CCN(C(=O)c2ccco2)CC1,-57.6
15,O=C(Nc1cccc2[nH]ncc12)NS(=O)(=O)c1ccccc1,10.7
16,O=C1CC(c2ccccc2)CC(O)=C1C=NCCc1ccccc1 (stereo not drawn),6.57
17,O=C(CNC(=O)c1cccc(F)c1)N/N=C/c1ccc(O)c([N+](=O)[O-])c1,9.59
18,COc1ccc(/C=C2\CCC(C3CCCC3)C2=O)cc1Cn1cccn1 (stereo not drawn),-35.7
19,CC(C)(C)C(=O)Oc1cccc(Nc2ncnc3ccccc23)c1,9.76
20,Cc1ccc2c(c1)N(C(=O)c1ccco1)C(C)(C)c1ssc(=S)c1-2,-7.06
21,COc1ccc(-c2noc(CCC(N)=O)n2)cc1OC,3.66
22,O=C(CSc1ccccc1)Nc1ccc2c(c1)OCO2,15.5

row,Compound,"hERG current change (%, negative = inhibition) at 10uM [%]"
1,Cc1cc(=O)nc2c3ccccc3n(CC(=O)NC3CCCCC3)n12,10.3
2,CCc1nnc(NC(=O)c2cc(OC)c(OC)cc2[N+](=O)[O-])s1,7.26
3,CCC(=O)c1ccc(OCC(O)Cn2nc(C)c(Br)c2C)cc1 (stereo not drawn),-97.8
4,CC(NC(=O)COC(=O)CCc1ccccc1)c1ccccc1 (stereo not drawn),9.28
5,COc1ccc(-c2cccc(NC(=O)COc3ccc(Cl)cc3)c2)nn1,-0.165
6,O=C(c1cccc(N2CCNC2=O)c1)N1CCCC(Nc2cccc(F)c2)C1 (stereo not drawn),3.28
7,Cc1cc(CNC(=O)C(C)n2nc(C)c([N+](=O)[O-])c2C)c2ccccc2n1 (stereo not drawn),4.89
8,Cc1cc(C(=O)CS(=O)(=O)c2ccc(F)cc2)cc(C)c1OC(=O)N(C)C,-8.56
9,CC(=O)N1CC(C)Oc2ccc(S(=O)(=O)NC(CC(=O)O)c3cc(C)ccc3C)cc21 (stereo not drawn),18
10,c1ccc(-n2ncc3c(NCc4ccco4)ncnc32)cc1,-15
11,CCOc1ccc(NS(=O)(=O)c2cnc(Cl)c(Cl)c2)cc1,-12.6
12,Cl.Clc1ccccc1CSC1=NCCN1,-3.32
13,CCCCn1c(-c2ccoc2C)n[nH]c1=S,12.6
14,Cc1onc(-c2c(F)cccc2Cl)c1C(=O)c1ccccc1,-1.39
15,COc1ccc(C(=O)CSc2nnc(CNC(=O)c3ccco3)n2C)cc1OC,17
16,COC(=O)C(CO)Nc1ncnc2onc(-c3ccc(F)cc3)c12 (stereo not drawn),14.2
17,O=c1c2ccccc2nc(-c2cccc(Cl)c2)n1O,7.43
18,Fc1ccccc1N1CCN(c2nc3ccccc3n3nnnc23)CC1,4.29
19,COc1ccc(C2=NN(C(=O)c3ccccc3C(=O)O)C(c3ccccc3O)C2)cc1 (stereo not drawn),-0.273
20,O=C(CSc1nc2ccccc2c(=O)n1NC(=O)Cc1ccccc1)NCc1ccccc1Cl,-19.5
21,NC(=O)N/N=C/c1c(Sc2nnnn2-c2ccccc2)nc2ccccn2c1=O,-21.2
